The campaign covered roughly 46,000 compounds. About 60 (0.1%) were called active. Inconclusive results (about 3%) are left out. The call rests on the fitted dose curve; in most records, active means well fitted inhibition curve with a large enough effect; inconclusive means small, poorly fitted or top-dose-only effect; inactive means no such curve, though single readings can be large or run the other way. The list shows a part of the results.

The text below walks through data of PubChem BioAssay AID1963576 (National Center for Advancing Translational Sciences (NCATS), 2024).

The assay is described as follows: Primary qHTS assay for Inhibitors of ovarian cancer metastasis using an organotypic tumor microenvironment (TME) model. Further: nearly all actives have a fitted effect of over 65% in size.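 On activity change, negative = inhibition: plate controls were DMSO wells for no effect and tomatine positive control wells for full effect.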 The settings on record: SKOV3ip1-GFP adhesion/invasion on 3D omental model, fluorescence; series mostly up to 45.8 µM; activity change, negative = inhibition: at the top concentration. In a few lines:
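A 3D layer of primary human omental fibroblasts, mesothelial cells, fibronectin and collagen I, grown 48 hr, received SKOV3ip1-GFP cells in serum-free medium plus compounds at 0.36-46 umol/L. After 2 hr RT and 16 hr 37 C, fixed adherent GFP cells were counted; normalized to DMSO and tomatine.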
Take `Cc1sc2ncn(CC(=O)N3CCN(c4cccc(Cl)c4)CC3)c(=O)c2c1S(=O)(=O)N1CCC(C)CC1`: the “activity change, negative = inhibition” value was inactive: -3.9%. The same measure, in the same setting: in the case of `Cc1cccc2cc(-c3nc(-c4cccs4)no3)c(=O)oc12` it was inactive: -5.03%; in that of `CCn1cc(S(=O)(=O)c2cc(C)cc(C)c2)c(=O)c2cc(F)c(N3CCN(c4ccccc4)CC3)cc21`, inactive: 12.1%; in that of `COc1cccc(C(=O)N2CCc3cc(OC)c(OC)cc3C2COc2ccc3c(C)cc(=O)oc3c2)c1` (stereo unspecified), inactive: 14.5%. `COC(=O)c1ccc(NC(=O)CN(C)S(=O)(=O)c2ccc3c(c2)CCCC(=O)N3)cc1`: the call was inactive.

In the case of `COc1ccc(Cl)cc1NC(=O)COc1cccc2c(=O)n(C)ccc12`, the “activity change, negative = inhibition” value was inactive: 2.87%. With `CCCCNC(=O)Cn1nc(N2CCN(c3ccccc3OC)CC2)ccc1=O`, the “activity change, negative = inhibition” value was inactive: -10.6%.

Consider `COc1cc(NC(=O)c2noc3c2CC(C(C)(C)C)CC3)cc(OC)c1OC` (stereo unspecified), for which the outcome was inactive. The same measure, in the same setting: then `COCCn1c(C)cc(O)c(C(c2ccccc2Cl)N2CCN(c3ccccc3)CC2)c1=O` (stereo unspecified), with “inactive”.

With `CCOc1ccc(-c2cc(CCCC(=O)NCCc3ccc(SC)cc3)no2)cc1`, the call was inactive. Turning to `COc1ccc(OCC(=O)N2CCN(C(=O)c3cccc(OC)c3OC)CC2)cc1`, the “activity change, negative = inhibition” value is inactive: -18.5%. Same read-out and setting: in the case of `Cc1cccc(C=NNc2cc(N3CCOCC3)nc(OCCc3ccccn3)n2)c1` it was inactive: -31%. Turning to `CCCCN(C(=O)CCn1c(=O)oc2ccccc21)c1ccccc1`, the “activity change, negative = inhibition” value was inactive: -2.03%. On to `Cc1nn(-c2ccc(N3CCCC3)nn2)c(C)c1CCC(=O)N1CCN(c2ccc(F)cc2)CC1`, for which the molecule was called inactive. Turning to `CCOC(=O)c1ccc(NC(=O)c2c(NCc3ccc(OC)c(OC)c3OC)sc3c2CCC(C)C3)cc1` (stereo unspecified), the call was inactive. As to `O=C(NCC(c1cccnc1)N1CCc2ccccc21)c1cccc(F)c1` (stereo unspecified), the “activity change, negative = inhibition” value is inactive: -7.57%. On to `Cc1cccc(NC(=O)Cn2c(=O)n(CC3CCC(C(=O)NCCc4ccccc4)CC3)c(=O)c3ccccc32)c1C` (stereo unspecified), for which the call was inactive. The same measure, in the same setting: then `Cc1ccc2[nH]c(C)c(CCNC(=O)c3cc4cc(Br)ccc4oc3=O)c2c1`, with “inactive”.

In the case of `CC(C)(C)OC(=O)CN(Cc1ccc(Cl)cc1)Cc1ccc([N+](=O)[O-])s1`, the “activity change, negative = inhibition” value was inactive: 2.71%.

Take `O=C(NCC(c1ccco1)S(=O)(=O)c1cccs1)c1c(F)cccc1F` (stereo unspecified): the “activity change, negative = inhibition” value is inactive: 1.17%. On the same count and under the same terms, then `CCN(CC)C(=O)c1sc2c(c1C)c(=O)n(Cc1ccccc1)c(=O)n2Cc1c(C)cc(C)cc1C`, with inactive: 1.64%; and `CCOc1ccc(S(=O)(=O)Nc2ccc3c(c2)CCCN3S(=O)(=O)c2ccc(C)cc2)cc1`, with inactive: -21.5%; and `Cc1ccc(CNC(=O)c2cc(NS(=O)(=O)c3ccc(C)cc3)ccn2)cc1`, with inactive: 21.6%. With `CCOc1ccccc1CNC(=O)CCCn1c(=O)c2cccn2c2ccc(F)cc21`, the result was inactive. In the case of `Cc1ccc(NS(=O)(=O)c2ccc3[nH]c4c(c3c2)CCCCCC4)cc1C`, the “activity change, negative = inhibition” value was inactive: -25.8%. In the case of `Cn1c(Oc2cccc(Cl)c2)nc2c1c(=O)n(Cc1ccccc1Cl)c(=O)n2C`, the result was inactive. Regarding `CCCOc1ccc(C(=O)Nc2ccc(NC(=O)c3ccc(Br)cc3)cc2)cc1`, the “activity change, negative = inhibition” value was inactive: 0.173%. The same measure, in the same setting: then `Cc1cccc(Nc2nnc(-c3ccc(C)c(S(=O)(=O)N4CCOCC4)c3)c3ccccc23)c1`, with inactive: -4.03%.

As to `COc1ccc(CCNCc2c(C(=O)O)c(C)n(Cc3cccc(C)c3)c2C)cc1OC`, the “activity change, negative = inhibition” value is inactive: -2.02%. Take `COC(=O)c1sc2cccc(F)c2c1S(=O)(=O)NCc1ccccc1Cl`: the “activity change, negative = inhibition” value was inactive: -7.89%. Same read-out and setting: in the case of `COc1ccc(NC(=O)CN(C)S(=O)(=O)c2ccc3nc(C)sc3c2)cc1Cl` it was inactive: -10.7%; in that of `Cn1c(C(=O)NCc2ccccc2F)cc2cc(S(=O)(=O)N3CCCCC3)ccc21`, inactive: -5.06%; in that of `Cc1cc(C)cc(NC(=O)C2CCN(c3nnc(-n4c(C)ccc4C)s3)CC2)c1`, inactive: -3.47%. With `CCOC(=O)c1scc(-c2ccc(C)cc2)c1S(=O)(=O)N1CCN(c2ccccc2)CC1`, the molecule was called inactive. On the same count and under the same terms, in the case of `COc1ccc(-n2c(SCC(=O)Nc3ccc4c(c3)OCO4)nc3c([nH]c4ccccc43)c2=O)cc1` it was “inactive”; in that of `COc1ccc(S(=O)(=O)N(CC(=O)Nc2ccc(C)cc2)c2ccc(C)cc2)cc1OC`, “inactive”. As for `CC(=O)c1ccc(NS(=O)(=O)c2ccc3[nH]c(=O)[nH]c3c2)cc1`, the “activity change, negative = inhibition” value was inactive: 12.4%.

Regarding `COc1ccc(-c2noc(COc3ccc(C)cc3C)n2)cc1OC`, the “activity change, negative = inhibition” value is inactive: 15.1%. In the case of `CCc1cccc(NC(=O)CN(C)S(=O)(=O)c2ccc3c(c2)n(C)c(=O)c(=O)n3C)c1`, the “activity change, negative = inhibition” value is inactive: -5.52%. For `Cc1cc(C)c(Cn2cnc3nc4c(cc3c2=O)CCCC4)c(C)c1`, the result was inactive. Same read-out and setting: in the case of `CCOc1ccccc1NC(=O)CN(c1cc(C)cc(C)c1)S(=O)(=O)c1c(C)nn(C)c1C` it was “inactive”.

For the molecule `COc1ccc(Nc2cc(C)c3cc(NC(=O)COc4cccc(C)c4)ccc3n2)cc1`, the “activity change, negative = inhibition” value was inactive: -3.89%. Still for that read-out and setting: in the case of `Cc1cccc(N2CCN(C(=O)CCNS(=O)(=O)c3ccc4c(c3)CCN4C(=O)C3CC3)CC2)c1C` it was inactive: 13.3%; in that of `COc1cccc(CNC(=O)C2=C(C)C(=O)OC23CCCCCC3)c1`, inactive: 1.33%; in that of `O=C(CN1C(=O)c2ccccc2Sc2ncccc21)Nc1cccc(C(F)(F)F)c1`, inactive: -6.58%. For `COc1ccc(Cl)cc1NC(=O)c1noc2c1CCc1ccccc1-2`, the “activity change, negative = inhibition” value was inactive: 1.41%.
